± gives the standard deviation of the averaged measurements. The full ranking holds about 33,000 sequences; the median of “E-score (dimensionless, -0.5 to 0.5)” is about -0.046, and the highest 2% start at about 0.36. Some of the results follow.
These sequences were tested on T1, SpTbr T-box DNA-binding domain (GST fusion) (assay: PBM E-score of 8-mer (E-score (dimensionless, -0.5 to 0.5)); Tbr is Tbrain of the sea star Patiria miniata (Pm) or the sea urchin Strongylocentrotus purpuratus (Sp); higher = stronger binding preference; most listed sequences are background and not binding sites). Conditions: the construct has about 5 more residues each side.
T1 sequence: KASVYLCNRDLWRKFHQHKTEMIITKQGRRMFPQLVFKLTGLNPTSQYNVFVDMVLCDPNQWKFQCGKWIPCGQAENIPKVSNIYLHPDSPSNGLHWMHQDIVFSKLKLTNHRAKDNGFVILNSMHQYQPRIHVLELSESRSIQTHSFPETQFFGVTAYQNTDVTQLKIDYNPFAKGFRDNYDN
How it was run: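 Each ungapped 8-mer received an enrichment E-score from the Universal PBM Analysis Suite, averaged over duplicate arrays. The proteins were Tbr T-box DNA-binding domains, covering the whole T-box plus about five flanking residues, fused to GST and expressed in BL21 E. coli at 20 °C before glutathione affinity purification. Universal Agilent oligonucleotide arrays were made double-stranded by primer extension and incubated with 200 nM protein in PBS (pH 7.5). The arrays were then scanned and quantified, and every 8-mer was scored from probe intensities.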

In order of rising “PBM E-score of 8-mer” value:
1. GGGCTGGA  -0.388 ± 0.041
2. GCATTAGA  -0.353 ± 0.067
3. AGGGCTCC  -0.314 ± 0.073
4. CTGCCCAG  -0.31 ± 0.014
5. CCCCGGAG  -0.296 ± 0.069
6. GCATCAGA  -0.28455 ± 7.1e-05
7. AAATAGGA  -0.278 ± 0.04
8. ACCAGAGC  -0.274 ± 0.033
9. GCAGAGGA  -0.273 ± 0.021
10. AATTCTCT  -0.273 ± 0.058
11. AAATTAAA  -0.26 ± 0.096
12. CAGAACTA  -0.256 ± 0.026
13. CATCGGAG  -0.255 ± 0.072
14. CTGCAAGC  -0.252 ± 0.061
15. GGGGAGCA  -0.25 ± 0.0084
16. ACTAAACT  -0.241 ± 0.017
17. AAGGAGCT  -0.233 ± 0.02
18. GGCTAGAC  -0.23 ± 0.003
19. ATCCAATA  -0.229 ± 0.046
20. AGCATCCA  -0.228 ± 0.072
21. AAGAATAA  -0.227 ± 0.007
22. AGGGGCTG  -0.214 ± 0.027
23. GCAAATCC  -0.203 ± 0.038
24. AAGGTCGT  -0.199 ± 0.0057
25. GTCTCCGA  -0.198 ± 0.069
26. GCCGCTCC  -0.197 ± 0.066
27. AAGCCACC  -0.196 ± 0.066
28. AATCTGCC  -0.194 ± 0.023
29. CCGAGCCC  -0.184 ± 0.087
30. CTACGGAA  -0.182 ± 0.049
31. CTATCCTA  -0.171 ± 0.0083
32. AACCGCAT  -0.168 ± 0.022
33. CGTTCAAG  -0.167 ± 0.0076
34. GGATACCA  -0.161 ± 0.08
35. TCCCATAA  -0.16 ± 0.022
36. AATTGGCT  -0.157 ± 0.0044
37. GAGACTCA  -0.152 ± 0.051
38. CGGAGCTA  -0.15 ± 0.1
39. CCGTAGCC  -0.145 ± 0.04
40. CCCAACCC  -0.144 ± 0.069
41. GTTGAGCA  -0.137 ± 0.031
42. CATCTACG  -0.134 ± 0.057
43. ATTTACCA  -0.133 ± 0.039
44. GATACCGA  -0.127 ± 0.0088
45. ACCGACCG  -0.127 ± 0.033
46. CTACATGC  -0.125 ± 0.0097
47. CTGAAGTA  -0.116 ± 0.026
48. AACTCAAG  -0.116 ± 0.075
49. ACTTGGAA  -0.116 ± 0.055
50. AGAGGGTA  -0.113 ± 0.012
51. GGGACATA  -0.113 ± 0.021
52. CTACTGTA  -0.111 ± 0.05
53. AGTTGGTA  -0.108 ± 0.069
54. AACAGACG  -0.106 ± 0.075
55. GTCGTATA  -0.105 ± 0.081
56. AGTTCTAC  -0.102 ± 0.002
57. GACAGGCC  -0.1 ± 0.072
58. AACGTCTT  -0.0988 ± 0.032
59. GCGGCAGA  -0.0967 ± 0.032
60. CCAGTTAG  -0.0951 ± 0.0013
61. GAGAGTAC  -0.0949 ± 0.017
62. ATCTAACC  -0.0868 ± 0.043
63. CCGGTGAA  -0.0867 ± 0.0072
64. CCAGCAGA  -0.0861 ± 0.052
65. GAAAGGAC  -0.0836 ± 0.079
66. GTCTGCCA  -0.0807 ± 0.028
67. TATGTGCA  -0.0789 ± 0.074
68. AGCTACCG  -0.0774 ± 0.044
69. ATCTGGCA  -0.0745 ± 0.035
70. CGGTAATC  -0.0705 ± 0.081
71. CGAAAGGC  -0.0702 ± 0.065
72. CCCTACCA  -0.0683 ± 0.08
73. AAAATTGA  -0.0654 ± 0.052
74. ATGACAAA  -0.0554 ± 0.028
75. CCCAACGG  -0.055 ± 0.1
76. AGGGACTC  -0.0519 ± 0.037
77. CCAGACGA  -0.04605 ± 0.00013
78. GCCTGTTA  -0.044 ± 0.03
79. TGGTCTAA  -0.0415 ± 0.1
80. ACGGCAAG  -0.0413 ± 0.04
81. AGTTTGCC  -0.04 ± 0.0086
82. CCATTGCA  -0.0399 ± 0.012
83. AGGGCGGA  -0.0328 ± 0.0044
84. GTACCCTA  -0.032 ± 0.028
85. AATGGAAC  -0.0265 ± 0.021
86. TAAGCGGA  -0.0158 ± 0.095
87. AGTGGAGC  -0.0127 ± 0.11
88. CAGTTTGA  -0.0119 ± 0.00066
89. ACTTACTG  -0.00968 ± 0.024
90. CTGCTTAA  -0.0083 ± 0.048
91. AGGGAGTC  -0.00783 ± 0.071
92. TACCTCGA  -0.00303 ± 0.087
93. AAACTTCG  -0.00264 ± 0.024
94. GCGCCGAC  -0.00125 ± 0.061
95. GGCAACCA  0.000925 ± 0.0078
96. TACTCTCA  0.002 ± 0.057
97. CGCTCAAA  0.00388 ± 0.065
98. ACTGGCCA  0.0049 ± 0.016
99. CTCGAACA  0.00677 ± 0.052
100. TAACGATA  0.00856 ± 0.011
101. CGCTGCAA  0.0092 ± 0.027
102. ATAAATCA  0.0094 ± 0.1
103. CCACTTAA  0.0113 ± 0.00066
104. AACCGGAG  0.0115 ± 0.044
105. AGGTGCTC  0.012 ± 0.081
106. TATAAACA  0.012 ± 0.057
107. TATGCCAA  0.0137 ± 0.0024
108. CGAGCTAG  0.0147 ± 0.082
109. ATCTCATG  0.015 ± 0.0085
110. ACAGTGGC  0.0158 ± 0.0033
111. AGTGTACG  0.0187 ± 0.04
112. CGTTAGCC  0.0205 ± 0.017
113. CGCAGCCG  0.023 ± 0.017
114. CGCCGGTC  0.0265 ± 0.055
115. CTGCAAAG  0.0277 ± 0.049
116. AAGAGATC  0.028 ± 0.024
117. CCCTGCAC  0.0307 ± 0.017
118. ACGAAACA  0.0313 ± 0.035
119. ACATCGGC  0.0326 ± 0.061
120. AGAGGACA  0.0332 ± 0.0054
121. ACTCATGG  0.0349 ± 0.013
122. GCAAAGAC  0.0383 ± 0.028
123. CGTTTAAC  0.0414 ± 0.039
124. AGATGAAG  0.0432 ± 0.049
125. CGAAGCGC  0.0491 ± 0.058
126. ATGGTTAG  0.0545 ± 0.053
127. CTGATCAA  0.0577 ± 0.13
128. CCACCGCC  0.0612 ± 0.044
129. CCGCTTCC  0.0652 ± 0.037
130. ACCCGTTC  0.0673 ± 0.036
131. ACAATAGT  0.0742 ± 0.009
132. CAGCTAAG  0.076 ± 0.039
133. AAGAATAG  0.0775 ± 0.017
134. AATGCCAC  0.082 ± 0.028
135. AGCCCCAC  0.0849 ± 0.074
136. ATAGTTAA  0.0934 ± 0.035
137. ATTTGGCA  0.0982 ± 0.12
138. CGGCAACG  0.106 ± 0.0022
139. ATTTCTTC  0.11 ± 0.029
140. CGAAAGCG  0.112 ± 0.014
141. GCGACCCC  0.114 ± 0.0081
142. CCTTGTCG  0.115 ± 0.099
143. AACTGCTG  0.117 ± 0.037
144. ACAACGTG  0.12 ± 0.027
145. GTCACAAA  0.125 ± 0.032
146. CAGTAACG  0.126 ± 0.048
147. CCGTTCTC  0.129 ± 0.027
148. GATAATTA  0.14 ± 0.063
149. CGCTGACG  0.15 ± 0.0052
150. AAACTCGC  0.167 ± 0.0056
151. AAAGCCTC  0.168 ± 0.024
152. GCATTCAC  0.171 ± 0.017
153. AACTTGAC  0.178 ± 0.0071
154. CCTGAGAG  0.182 ± 0.052
155. GATTGTGA  0.198 ± 0.013
156. ACCAAGTG  0.199 ± 0.021
157. ACTTGGCG  0.22 ± 0.038
158. CAATTGAC  0.231 ± 0.0041
159. CACTGACG  0.247 ± 0.027
160. GCCGCCAC  0.249 ± 0.035
161. ATCGCGAC  0.271 ± 0.036
162. CGAAGGCG  0.27349 ± 5.7e-05
163. AACACAGT  0.274 ± 0.042
164. GACAGCTC  0.274 ± 0.021
165. ACAGTTGC  0.2768 ± 0.00088
166. ACGCCACT  0.285 ± 0.013
167. AAGGCGCT  0.306 ± 0.035
168. CTCCACAC  0.37 ± 0.0083
169. AGTTCGCA  0.3728 ± 0.00053
170. GTGTCATA  0.404 ± 0.022
171. AGGTGGCA  0.432 ± 0.015
172. ACACCTGT  0.4669 ± 0.0038

From the supplement of paper PMC4166925
